# Test results published in the supplement of paper PMC12217912.
# Some of the results follow. The full chains were built here from the parent and the listed change. Values near 0.05 are background.
# B1: TEV protease; numbered along this chain (parent)
# chain: MGESLFKGPRDYNPISSSICHLTNESDGHTTSLYGIGFGPFIITNKHLFRRNNGTLVVQSLHGVFKVKDTTTLQQHLVDGRDMIIIRMPKDFPPFPQKLKFREPQREERICLVTTNFQTKSMSSMVSDTSCTFPSGDGIFWKHWIQTKDGQCGSPLVSTRDGFIVGIHSASNFTNTNNYFTSVPKNFMELLTNQEAQQWVSGWRLNADSVLWGGHKVFMVKPEEPFQPVKEATQL
# Variants of: B1
# Assay: raw area under fraction-flipped curve 0-4 h after induction (AUC4h, not background-subtracted), DNA-recorder readout of cleavage of the substrate (dimensionless); higher = more cleavage of the substrate by the protease variant
# Conditions: temperature: 34 °C; time window: 0-4 h after rhamnose induction
# Protocol: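 In vivo DNA recorder in E. coli TOP10(DE3) ΔrhaA at 34 °C. Each TEVp single-site mutant (parent TEVp 0) is paired with a single-site variant of the 7-mer TEVs (canonical ENLYFQ|S). The substrate sits between flexible linkers in a Bxb1-sfGFP-TEVs-SsrA fusion, so cleavage stabilises Bxb1 and speeds flipping of a recombination array, read by NGS. The value is the raw area under the fraction-flipped curve over 0-4 h after rhamnose induction (AUC4h), with ≥20 reads per time point. It is not background-subtracted; inactive controls average about 0.047.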
# 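Note: Bxb1 expression induced with 0.2% (w/v) L-rhamnose at OD600 near 0.5, cultures sampled hourly, flipped fraction per protease–substrate barcode pair counted by paired-end Illumina sequencing.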
Variant,area with substrate CNLYFQS,area with substrate DNLYFQS,area with substrate GNLYFQS,area with substrate HNLYFQS,area with substrate INLYFQS,area with substrate KNLYFQS,area with substrate LNLYFQS,area with substrate MNLYFQS,area with substrate NNLYFQS,area with substrate PNLYFQS,area with substrate RNLYFQS,area with substrate TNLYFQS,area with substrate WNLYFQS,area with substrate YNLYFQS,area with substrate SNLYFQS,area with substrate VNLYFQS,area with substrate FNLYFQS,area with substrate QNLYFQS
MGESLFKGPRDYNPISSSICHLTNESDGHTTSLYGIGFGPFIITNKHLFRRNNGTLVVQSLHGVFKVKDTTTLQQHLVDGRDMIIIRMPKDFPPFPQKLKFREPQREERICLVTTNFQTKSMSSMVSDTSCTFPSGDGIFWKHWIQTKDGQCGMPLVSTRDGFIVGIHSASNFTNTNNYFTSVPKNFMELLTNQEAQQWVSGWRLNADSVLWGGHKVFMVKPEEPFQPVKEATQL [S154M],0.0244,0.0696,0.0645,0.0655,0.0596,0.0569,0.0637,0.0598,0.102,0.0697,0.0415,0.0523,0.0575,0.0669,,,,
MGESLFKGPRDYNPISSSICHLTNESDGHTTSLYGIGFGPFIITNKHLFRRNNGTLVVQSLHGVFKVKDTTTLQQHLVDGRDMIIIRMPKDFPPFPQKLKFREPQREERICLVTTNFQTKSMSSMVSDTSCTFPSGDGIFWKHWIQTKDGQCGRPLVSTRDGFIVGIHSASNFTNTNNYFTSVPKNFMELLTNQEAQQWVSGWRLNADSVLWGGHKVFMVKPEEPFQPVKEATQL [S154R],0.0612,0.0704,0.0562,0.0617,0.0716,0.0648,0.0654,0.0306,0.0646,0.0501,0.0541,0.0554,0.0549,0.0674,0.0512,0.0607,,
MGESLFKGPRDYNPISSSICHLTNESDGHTTSLYGIGFGPFIITNKHLFRRNNGTLVVQSLHGVFKVKDTTTLQQHLVDGRDMIIIRMPKDFPPFPQKLKFREPQREERICLVTTNFQTKSMSSMVSDTSCTFPSGDGIFWKHWIQTKDGQCGLPLVSTRDGFIVGIHSASNFTNTNNYFTSVPKNFMELLTNQEAQQWVSGWRLNADSVLWGGHKVFMVKPEEPFQPVKEATQL [S154L],0.0674,0.159,,0.0756,,0.085,0.0639,0.0539,0.0665,,,0.061,0.0564,,,,,
MGESLFKGPRDYNPISSSICHLTNESDGHTTSLYGIGFGPFIITNKHLFRRNNGTLVVQSLHGVFKVKDTTTLQQHLVDGRDMIIIRMPKDFPPFPQKLKFREPQREERICLVTTNFQTKSMSSMVSDTSCTFPSGDGIFWKHWIQTKDGQCGSPLVSTRSGFIVGIHSASNFTNTNNYFTSVPKNFMELLTNQEAQQWVSGWRLNADSVLWGGHKVFMVKPEEPFQPVKEATQL [D161S],0.0506,0.0454,0.0561,0.0668,0.0589,,0.0614,,,0.0655,,0.06,0.0559,,0.0705,0.0692,,
MGESLFKGPRDYNPISSSICHLTNESDGHTTSLYGIGFGPFIITNKHLFRRNNGTLVVQSLHGVFKVKDTTTLQQHLVDGRDMIIIRMPKDFPPFPQKLKFREPQREERICLVTTNFQTKSMSSMVSDTSCTFPSGDGIFWKHWIQTKDGQCGSPLVSTRYGFIVGIHSASNFTNTNNYFTSVPKNFMELLTNQEAQQWVSGWRLNADSVLWGGHKVFMVKPEEPFQPVKEATQL [D161Y],0.0511,0.0524,0.0432,0.0634,,,0.0541,0.0566,0.0712,0.058,0.0569,0.0597,0.0589,,0.0468,,0.0553,
MGESLFKGPRDYNPISSSICHLTNESDGHTTSLYGIGFGPFIITNKHLFRRNNGTLVVQSLHGVFKVKDTTTLQQHLVDGRDMIIIRMPKDFPPFPQKLKFREPQREERICLVTTNFQTKSMSSMVSDTSCTFPSGDGIFWKHWIQTKDGQCGSPLVSTRRGFIVGIHSASNFTNTNNYFTSVPKNFMELLTNQEAQQWVSGWRLNADSVLWGGHKVFMVKPEEPFQPVKEATQL [D161R],0.0515,0.0403,0.0712,0.065,0.0488,0.0649,0.0453,,,,0.0259,0.0568,,0.0538,0.0341,,,0.0622
MGESLFKGPRDYNPISSSICHLTNESDGHTTSLYGIGFGPFIITNKHLFRRNNGTLVVQSLHGVFKVKDTTTLQQHLVDGRDMIIIRMPKDFPPFPQKLKFREPQREERICLVTTNFQTKSMSSMVSDTSCTFPSGDGIFWKHWIQTKDGQCGSPLVSTRDGFMVGIHSASNFTNTNNYFTSVPKNFMELLTNQEAQQWVSGWRLNADSVLWGGHKVFMVKPEEPFQPVKEATQL [I164M],0.0646,0.0768,0.0627,0.0648,0.0573,0.0543,0.0596,0.0587,0.0553,0.0574,0.0523,0.0617,0.063,0.0493,0.0543,0.062,0.0699,
MGESLFKGPRDYNPISSSICHLTNESDGHTTSLYGIGFGPFIITNKHLFRRNNGTLVVQSLHGVFKVKDTTTLQQHLVDGRDMIIIRMPKDFPPFPQKLKFREPQREERICLVTTNFQTKSMSSMVSDTSCTFPSGDGIFWKHWIQTKDGQCGSPLVITRDGFIVGIHSASNFTNTNNYFTSVPKNFMELLTNQEAQQWVSGWRLNADSVLWGGHKVFMVKPEEPFQPVKEATQL [S158I],0.0375,0.0345,,0.05,0.0536,0.0553,,0.0395,,,,,0.0389,0.0496,,,,
MGESLFKGPRDYNPISSSICHLTNESDGHTTSLYGIGFGPFIITNKHLFRRNNGTLVVQSLHGVFKVKDTTTLQQHLVDGRDMIIIRMPKDFPPFPQKLKFREPQREERICLVTTNFQTKSMSSMVSDTSCTFPSGDGIFWKHWIQTKDGQCGSPLVATRDGFIVGIHSASNFTNTNNYFTSVPKNFMELLTNQEAQQWVSGWRLNADSVLWGGHKVFMVKPEEPFQPVKEATQL [S158A],0.0514,0.0758,0.0587,0.0637,,0.0817,,0.0738,,0.0683,0.0544,,,0.0802,0.0579,,0.076,
MGESLFKGPRDYNPISSSICHLTNESDGHTTSLYGIGFGPFIITNKHLFRRNNGTLVVQSLHGVFKVKDTTTLQQHLVDGRDMIIIRMPKDFPPFPQKLKFREPQREERICLVTTNFQTKSMSSMVSDTSCTFPSGDGIFWKHWIQTKDGQCGSPLVDTRDGFIVGIHSASNFTNTNNYFTSVPKNFMELLTNQEAQQWVSGWRLNADSVLWGGHKVFMVKPEEPFQPVKEATQL [S158D],0.0556,0.0595,,0.0692,0.0361,,0.0522,,0.0523,,,0.0333,0.0543,,,,0.0433,0.0483
